Assay results taken from the supplement of paper PMC3334620.
Over roughly 33,000 sequences, “E-score (-0.5 to 0.5)” has its median near -0.041; the highest 2% begin near 0.37. The list shows a part of the results.

Molecular target: T1, Ecm22 (UniProt Q05958)
T1 sequence: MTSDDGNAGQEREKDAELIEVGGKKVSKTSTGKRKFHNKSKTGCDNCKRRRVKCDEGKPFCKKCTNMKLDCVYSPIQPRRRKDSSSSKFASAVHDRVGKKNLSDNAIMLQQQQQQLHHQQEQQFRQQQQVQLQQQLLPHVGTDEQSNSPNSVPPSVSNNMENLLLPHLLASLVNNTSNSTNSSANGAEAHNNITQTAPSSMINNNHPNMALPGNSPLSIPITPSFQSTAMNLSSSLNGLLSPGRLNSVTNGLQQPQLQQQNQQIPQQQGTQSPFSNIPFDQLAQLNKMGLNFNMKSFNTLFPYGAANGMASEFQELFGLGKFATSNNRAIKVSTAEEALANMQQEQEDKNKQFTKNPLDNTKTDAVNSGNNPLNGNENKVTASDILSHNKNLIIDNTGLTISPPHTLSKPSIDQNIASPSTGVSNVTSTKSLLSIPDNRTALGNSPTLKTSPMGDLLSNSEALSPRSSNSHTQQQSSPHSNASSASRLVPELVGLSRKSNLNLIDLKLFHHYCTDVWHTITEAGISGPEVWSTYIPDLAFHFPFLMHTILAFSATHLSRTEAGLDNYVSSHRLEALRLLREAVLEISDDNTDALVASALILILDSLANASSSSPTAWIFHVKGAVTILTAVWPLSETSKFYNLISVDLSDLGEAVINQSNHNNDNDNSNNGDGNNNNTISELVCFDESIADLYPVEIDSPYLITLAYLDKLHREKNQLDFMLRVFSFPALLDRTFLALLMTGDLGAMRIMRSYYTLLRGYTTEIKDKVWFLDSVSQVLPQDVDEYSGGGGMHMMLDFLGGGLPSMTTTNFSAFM
Test: PBM E-score (8-mer binding enrichment) (E-score (-0.5 to 0.5)); higher = stronger / more preferred TF binding; most listed sequences are background and not binding sites
Conditions: protein concentration: 200 nM; construct: GST-full length
Protocol: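 Universal 'all 10-mer' protein binding microarrays (Agilent AMADID 015681) probed with GST-tagged S. cerevisiae TFs (full-length or DBD) made by in vitro transcription/translation (PURExpress), about 100-200 nM. Bound TF was detected with fluorescent anti-GST. Each ungapped 8-mer (which stands for itself and its reverse complement) is scored by the PBM enrichment score (E-score), a modified Wilcoxon-Mann-Whitney statistic from -0.5 to +0.5, computed with the Universal PBM Analysis Suite. Scale: above 0.35 generally sequence-specific binding.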

Sequence	PBM E-score
ATCGGTCG	0.211
GGTCTACA	-0.117
GTAAATGA	0.16
AAAGCTCG	0.289
ACGAATGG	0.275
AATGCGCT	-0.136
CTTTGGGC	-0.079
CAACGCTA	-0.227
CGCAACCA	-0.0632
CCCAGCAA	-0.0485
GCTAACCC	-0.0831
CGAGAGGA	0.167
ATAGCTAG	-0.26
GTCAAGGA	-0.211
CATTGCAG	-0.0889
CGACGGTA	0.207
GATTTCTA	-0.0135
CCAGAGAC	-0.182
AGTTGACC	-0.132
AACGAATT	0.36
GAAGATTA	0.0105
TCATCACA	-0.17
CCAACAAA	0.065
ACACAGCT	-0.169

Sequence	PBM E-score
TAGGTGCA	-0.176
AAACCTAA	0.0777
GAAGAACA	-0.143
ACAGGAAG	-0.122
CAGGTGCC	-0.375
GACTCATC	-0.147
ACGCACGG	0.0901
ATTCGGTA	0.24
GTCGATAA	-0.04
AGATGGAC	-0.084
AAAGAAGT	-0.0866
ACTGAGCA	-0.0478
ATGGGGGA	-0.263
CAACTTGA	-0.136
GCCAGGAC	-0.226
TAGGGACA	-0.204
AAGAAGGG	-0.136
GGAAGAAA	-0.124
CCCTTTGA	-0.291
GCCGCACA	-0.00675
ATATAACC	0.0466
GCAGCCCA	-0.297
AAACCTAG	-0.099
AAAATATA	0.0721

Sequence	PBM E-score
AGTTTGGA	-0.0551
ATGCAAGG	-0.193
AATCAGGT	0.00411
TCAACTCA	-0.134
GAGCCAAA	-0.159
AATCTCCC	-0.117
AAGTTCAA	-0.0634
AGCTACCA	-0.228
CTATAAAG	-0.263
GATTTGCC	0.0159
GACCGTGA	-0.241
CACCCATC	-0.0932
AAAGCAAA	0.057
AGCTGTTC	-0.102
CTGTGGCC	-0.212
CAATTAAG	-0.0761
AAACAGGT	-0.0509
AGCGCAAG	-0.183
AGTGGGTC	-0.29
CTCCGTCA	-0.137
AGGCACCT	-0.354
AATCTGCT	-0.146
AGGTTGCC	-0.308
CTCAATCA	-0.213

Sequence	PBM E-score
CCTGGCCC	-0.206
CTAAGTAA	0.0684
ACGTAACG	0.16
AGCGTAAC	0.111
CCGTTACG	0.264
GACGAGTC	0.115
AAAGTTGG	-0.0592
GGTGCCAC	-0.154
TAATGATA	0.17
AAAATGAT	0.109
ACGCTCTA	0.0214
CTTTCCCA	-0.21
CGCTGCGA	0.111
GCAAAGGC	-0.213
CACATAAG	-0.156
AGTATACT	0.102
CACCGGGA	-0.197
ATTAGAAA	0.123
ACGCCGAT	0.0699
GAGCGTAA	0.0493
AGCCAACT	-0.256
AACTGATT	-0.0943
